Some of the results follow.

This assay relates to HSkMC (human skeletal muscle cells). The experiment in a line: cytotoxicity call (relative viability < 0.9). The conditions noted are these: 10 µM.
As to `Cc1ccc(S(=O)(=O)N2C[C@@H](O)COC[C@H]3O[C@H](CC(=O)NCc4ccc(F)c(F)c4)CC[C@@H]32)cc1`, the cytotoxicity call is “inactive”.
The value for `C[C@@H]1CN([C@H](C)CO)C(=O)c2cc(NS(=O)(=O)c3cn(C)cn3)ccc2O[C@@H](C)CCCCO[C@H]1CN(C)S(=O)(=O)c1ccccc1` was “inactive”.
The value for `C[C@H]1CN([C@@H](C)CO)C(=O)c2cccc(NC(=O)C3CCOCC3)c2O[C@H]1CN(C)S(=O)(=O)c1ccc(Cl)cc1` was “inactive”.
The value for `C[C@H](CO)N1C[C@H](C)[C@H](CN(C)C(=O)c2ccncc2)OCCCC[C@H](C)Oc2ccc(NS(=O)(=O)c3cn(C)cn3)cc2C1=O` was “inactive”; that for `COc1ccc2c3c([nH]c2c1)[C@H](CO)N(Cc1ccc(cc1)Cl)C[C@]13CCN(CC1)Cc1ccccc1` was “active”; that for `CC(C)CC#Cc1ccc2c(c1)O[C@@H](CN(C)C(=O)c1ccccn1)[C@@H](C)CN([C@H](C)CO)S2(=O)=O` was “inactive”.
Regarding `C[C@@H]1CN([C@@H](C)CO)C(=O)CCCn2nncc2CO[C@@H]1CN(C)S(=O)(=O)c1ccc(-c2ccccc2)cc1`, the cytotoxicity call is “inactive”.
`Cc1noc(C)c1S(=O)(=O)N(C)C[C@H]1Oc2ccc(NC(=O)C3CCCCC3)cc2CC(=O)N([C@@H](C)CO)C[C@@H]1C`: the cytotoxicity call is “inactive”.
As to `COc1ccc(/C=C/CN2CCC(C(=O)N[C@@H](c3ccc(F)cc3)c3ccc4ccccc4n3)CC2)cc1`, the cytotoxicity call is “inactive”.
Take `C[C@@H]1CN([C@H](C)CO)C(=O)Cc2cc(NS(=O)(=O)c3cccs3)ccc2O[C@@H]1CN(C)S(=O)(=O)c1cccs1`: the cytotoxicity call was “inactive”.
